# Tested on: native kinases in melanoma A375 cells (PIKfyve, PIP4K2C)
# Assay: KiNativ profiling of native kinases in melanoma A375 cells
# Type: cell-based, human
# Details: A375 cells cultured one hour with 1 μM or 0.05 μM WX8
# Experimental: FIG. 2. […] WX8 was profiled quantitatively against all the native kinases in melanoma A375 cells under conditions where protein-protein interactions, differential phosphorylation, and other naturally occurring modifications are preserved (KiNativ, http://www.kinativ.com/technology.htmi). Cells were cultured for one hour with either 1 μM or 0.05 μM WX8. The cells were then treated with biotinylated acyl phosphates of ATP and ADP irreversibly react with conserved lysine residues in the ATP-binding pocket of protein kinases, lipid kinases and heat shock proteins. Proteins were identified by mass spectroscopy. Results were analyzed using a melanoma A375-kinase-ATP probe list of 312 targets. The averages of three independent assays are reported (Student T-test score <0.04).
smiles,measurement,value
C1=Nc2ccccc2/C1=C/NNc1nc(Nc2ccccc2)nc(N2CCOCC2)n1 [WX8],kinase binding specificity in cells,bound primarily to the PIKfyve and secondarily to PIP4K2C

# — patent US20250268904A1 (priority 2020, published 2025)
